Reference: PMC4336329 (PLoS ONE, 2015)
In all, about 310,000 compounds went through this assay and about 2,200 (0.71%) showed an effect of 50% or more. Effects have a minus sign here. The list shows a part of the results.

Biological target: human ether-à-go-go-related gene (hERG) potassium channel (human, UniProt Q12809)
Experiment: primary screen, population patch clamp on CHO cells stably expressing hERG

Chain of human ether-à-go-go-related gene (hERG) potassium channel (Q12809 whole entry, looked up): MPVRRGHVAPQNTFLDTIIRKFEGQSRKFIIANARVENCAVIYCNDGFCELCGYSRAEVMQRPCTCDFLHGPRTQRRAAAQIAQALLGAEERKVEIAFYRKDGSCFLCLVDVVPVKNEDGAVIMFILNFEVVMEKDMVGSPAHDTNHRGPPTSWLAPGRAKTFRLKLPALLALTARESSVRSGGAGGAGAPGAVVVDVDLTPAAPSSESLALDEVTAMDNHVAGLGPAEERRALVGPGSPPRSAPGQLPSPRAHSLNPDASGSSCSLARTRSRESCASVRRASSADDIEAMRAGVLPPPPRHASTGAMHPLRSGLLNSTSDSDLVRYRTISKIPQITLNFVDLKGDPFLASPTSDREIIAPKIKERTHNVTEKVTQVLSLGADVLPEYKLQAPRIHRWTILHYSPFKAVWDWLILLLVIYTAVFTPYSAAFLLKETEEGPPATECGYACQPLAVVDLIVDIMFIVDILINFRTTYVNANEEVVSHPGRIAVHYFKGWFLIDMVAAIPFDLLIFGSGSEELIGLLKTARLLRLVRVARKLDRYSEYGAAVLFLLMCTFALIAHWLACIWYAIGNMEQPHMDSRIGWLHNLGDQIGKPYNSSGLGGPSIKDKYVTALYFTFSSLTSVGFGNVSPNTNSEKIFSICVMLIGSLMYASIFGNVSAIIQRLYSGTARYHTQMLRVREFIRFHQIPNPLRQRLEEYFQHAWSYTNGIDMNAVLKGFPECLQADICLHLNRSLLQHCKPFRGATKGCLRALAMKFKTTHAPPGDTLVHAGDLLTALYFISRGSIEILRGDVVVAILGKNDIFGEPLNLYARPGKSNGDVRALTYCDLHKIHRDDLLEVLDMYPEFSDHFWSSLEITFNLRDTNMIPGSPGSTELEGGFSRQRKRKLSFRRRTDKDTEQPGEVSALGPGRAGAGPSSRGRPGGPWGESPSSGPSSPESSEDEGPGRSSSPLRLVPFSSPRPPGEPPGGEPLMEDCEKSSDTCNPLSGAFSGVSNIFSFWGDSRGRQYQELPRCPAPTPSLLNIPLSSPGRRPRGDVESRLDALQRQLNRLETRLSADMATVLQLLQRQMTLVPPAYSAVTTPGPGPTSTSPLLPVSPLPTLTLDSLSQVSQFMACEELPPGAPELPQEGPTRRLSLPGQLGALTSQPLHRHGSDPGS

| Compound | hERG current change (%, negative = inhibition) at 1uM [%] |
| --- | --- |
| O=C(C1CCC(=O)N(C2CCCC2)C1)N1CCC(Oc2cccc(F)c2)CC1 (stereo not shown) | 7.71 |
| COC(=O)c1[nH]c(C)c(/C(O)=C2\C(=O)C(=O)N(CCN3CCOCC3)C2c2ccco2)c1C (stereo not shown) | 14.9 |
| O=C(Nc1cccc(OC(=O)c2ccco2)c1)c1ccco1 | 10.3 |
| Nn1c(SCc2ccc(C(=O)O)cc2)nnc1-c1ccc(Cl)cc1Cl | 9.81 |
| CC(C)N(C(=O)c1nn(C)c2c1CSc1ccccc1-2)C1CCCCC1 | 17.2 |
| CCC(C)[C@H](NC(=O)[C@@H]1Cc2c([nH]c3ccccc23)C2c3ccccc3C(=O)N21)C(=O)NCC1CCCO1 (stereo partly shown) | -8.22 |
| Cc1ccc(C)c(N2CCN(Cc3nnnn3C3CCCCC3)CC2)c1.Cl | 6.62 |
| S=C(Nc1ccc(Cl)cc1Cl)N1CCCC1 | 14.8 |
| COC(C[C@@H]1O[C@H]1C(=O)COCc1ccccc1)OC | 11.9 |
| Cc1ccc(C)c(N2CCN(C(=O)c3cc4ccccn4n3)CC2)c1 | 12.8 |
| Clc1cccc(/C=N/Nc2nc(Cl)nc3ccccc23)c1 | -11.1 |
| CC(=O)c1cccc(N2C(=O)Nc3ccccc3N2O)c1 | 12.4 |
| O=C(CSc1nnc(Cc2ccccc2)o1)NCCN1C(=O)CSC1=O | 14.8 |
| COc1ccc(NC(=O)CSc2nnc(-c3ccccn3)n2N)cc1Cl | 4.93 |
| COC(=O)[C@H](CCSC)NC(=O)Nc1ccc(OC)c(Cl)c1 | 8.86 |
| COc1ccc(C)cc1S(=O)(=O)NC(C)c1cnn(-c2ccccn2)c1C (stereo not shown) | 6.27 |
| O=C(COC(=O)c1cc(S(=O)(=O)N2CCOCC2)ccc1F)Nc1c(Cl)cccc1C(F)(F)F | 13.1 |
| Cc1cccc(C)c1NC(=O)CNC(=O)c1c(C)nn(-c2ccccc2)c1Cl | 5.29 |
| COc1ccccc1-n1c(SCC(=O)NC(C)(C)C)nc(O)cc1=O | 6.36 |
| CCN(Cc1ccccc1)S(=O)(=O)c1ccc(C(=O)N(CCCN(C)C)c2nc3c(F)cccc3s2)cc1.Cl | -21.2 |
| O=C(COC(=O)c1ccccn1)Nc1nc(-c2cccc([N+](=O)[O-])c2)cs1 | 7.73 |
| CC(=O)Nc1ccc(NC(=O)CNS(=O)(=O)c2ccc(C)cc2)cc1 | 6.69 |

| Compound | hERG current change (%, negative = inhibition) at 1uM [%] |
| --- | --- |
| CC(=O)N/C(=C\c1ccccc1)C(=O)NC(C)C(=O)O (stereo not shown) | 19.6 |
| COC(=O)c1ccsc1NC(=O)c1ccccc1 | 4.83 |
| CCOC(=O)CN1C(=O)/C(=C/c2ccccc2Br)Oc2ccccc21 | 17.9 |
| Cc1ccc(OCCCC(=O)Nc2nncs2)cc1 | 17.1 |
| CC(=O)COc1cccc2ccc(/C=C/c3ccc(Br)s3)nc12 | 7.21 |
| N#C/C(=C(/O)c1ccc(Cl)c([N+](=O)[O-])c1)c1nc2ccccc2[nH]1 | 7.01 |
| Nc1nnc(SCc2ccc([N+](=O)[O-])cc2)s1 | -7.81 |
| COCOc1ccc(/C=C/C(=O)c2c(O)cc(OCOC)cc2OCOC)cc1 | 12.6 |
| O=C(COC(=O)[C@H](Cc1ccccc1)NC(=O)c1ccco1)NCc1ccccc1 | 4.12 |
| CSc1nc(/C=C2\C=Nc3ccccc32)c(O)n1C | 13.2 |
| COc1ccc2c(c1)C(=O)C(=O)N2CCS(=O)(=O)c1ccccc1 | 13.2 |
| CCCCOC(=O)Nc1ccc(C)c(Cl)c1 | 13.1 |
| CCOC(=O)c1[nH]cnc1C(=O)Nc1ccc(F)cc1 | 7.66 |
| Cc1nc(-c2ccc(NC(=O)Cc3ccccc3)cc2)cs1 | 15 |
| Cc1ccc(S(=O)(=O)N2CCCCC2)cc1NC(=O)c1ccc(Cl)nc1 | 2.81 |
| Cc1ccc(N2CC(C(=O)N(C)CC(=O)Nc3ccc(Cl)c(C(F)(F)F)c3)CC2=O)cc1 (stereo not shown) | 3.57 |
| COc1ccc(COC(=O)NNC(=O)c2ccc(OC)cc2)cc1 | -1.5 |
| COC(=O)CCN(c1ccccc1)S(=O)(=O)c1ccc(OC)cc1 | 6.94 |
| COCCN(C(=O)CNC(=O)c1ccco1)C(C(=O)NC1CCCC1)c1ccccc1F (stereo not shown) | 1.58 |
| COc1ccc(OC)c(NC(=O)C23CCC(C)(C(=O)C2)C3(C)C)c1 (stereo not shown) | 9.43 |
| COc1ccccc1-c1cc(C(=O)Nc2ccccc2SC)no1 | -1.22 |
| COc1ccc(F)cc1C(=O)C1CCCN(Cc2cn(C)c3ccccc23)C1 (stereo not shown) | 14.2 |

| Compound | hERG current change (%, negative = inhibition) at 1uM [%] |
| --- | --- |
| COc1ccc(NC(=O)CSc2nc3ccccc3c(=O)n2CCNC(C)=O)cc1 | -12.8 |
| NC(CS(=O)O)C(=O)O (stereo not shown) | 8.7 |
| COC(=O)C1(C)NC(c2ccc(O)cc2)C2C(=O)N(c3ccc(C)cc3)C(=O)C21 (stereo not shown) | 12.3 |
| CC(Oc1ccccc1)C(=O)NNS(=O)(=O)c1ccc([N+](=O)[O-])cc1 (stereo not shown) | 15.4 |
| Cc1[nH]n(CCC#N)c(=O)c1CC(=O)N1CCN(c2ccccc2)CC1 | 7.28 |
| C=CCn1c(=O)c2ccc(C(=O)NCc3ccccc3)cc2n(Cc2ccccc2Cl)c1=O | 13.8 |
| c1ccc(-c2nc(N3CCOCC3)cc(N3CCOCC3)n2)cc1 | 9.93 |
| CC1CCC(N2CCN(C(=O)c3ccccc3F)CC2)CC1.O=C(O)C(=O)O (stereo not shown) | 3.29 |
| C/C(Cl)=C\Cn1c(N2CCCC2)nc2c1c(=O)n(C)c(=O)n2C | 16.3 |
| CN(CC(=O)O/N=C(\N)c1ccccn1)S(=O)(=O)c1ccc(Br)cc1 | 6.11 |
| O=C(Cn1cnnn1)OCC(=O)c1ccc(Cl)s1 | 14.8 |
| CC(C)N(C(=S)Nc1cccc(C(F)(F)F)c1)C(C)c1ccccn1 (stereo not shown) | 4.87 |
| COC(=O)c1ccc2c(C(C)(C)O)c(C(C)(C)O)[nH]c2c1 | 17.2 |
| CCOC(=O)Cc1csc(NC(=S)NC(=O)c2ccccc2C)n1 | 12.9 |
| CCCC(C(=O)Nc1ccc(S(=O)(=O)Nc2ncccn2)cc1)c1ccccc1 (stereo not shown) | 11.1 |
| S=C(N/N=C1\C2CN3CCN(C2)CC1(c1ccccc1)C3)Nc1ccccc1 | 2.85 |
| CCOC(=O)c1cc(-c2nnc(-c3ccc(Cl)cc3)o2)c(C)nc1C | 5.38 |
| CCN1CCN(c2ccc(NC(=O)c3cccc(OCc4ccccc4)c3)cc2)CC1 | 6.49 |
| CC(C)OC(=O)/C(=C\C=C\c1ccccc1)NC(=O)c1ccccc1 | 0.793 |
| CCn1c(CC(=O)Nc2cccc(OC)c2)nnc1SCC(=O)Nc1nccs1 | -12.4 |
| COc1ccc(O)c(CN2CCC(n3nccc3NC(=O)C3CCCC3)CC2)c1 | -28.4 |
| CCOC(=O)C(=CNc1cc(C)ccn1)C(=O)OCC | 6.18 |

| Compound | hERG current change (%, negative = inhibition) at 1uM [%] |
| --- | --- |
| COc1ccc(-c2c3c(nc4sc(C(=O)Nc5ccccc5)c(N)c24)CCC3)cc1 | 8.36 |
| O=C(NCC(c1ccco1)N1CCOCC1)c1cccc([N+](=O)[O-])c1 (stereo not shown) | -2.1 |
| COc1cc(/C=C(\C#N)c2ccccn2)ccc1OCc1ccccc1 | -2.19 |
| CCCC1C(C#N)=C(N)Oc2cc(C)n(C)c(=O)c21 (stereo not shown) | 15.4 |
| c1ccc(-c2ccc3c(c2)NCCN3)cc1 | 11.5 |
| CC(C)(C)c1ccc(OCC(=O)NNC(=O)CCc2ccccc2)cc1 | 6.66 |
| NC(=O)c1ccc(Cn2c(C(=O)c3ccc(Cl)cc3)c3ccccc3[n+]2[O-])cc1 | 0.226 |
| CCCCNC(=O)Nc1cc(C(F)(F)F)c[nH]c1=O | 3.81 |
| CN(CC(=O)Nc1ccccc1Cl)C(=O)COC(=O)c1nc(Cl)c(Cl)c(Cl)c1Cl | 9.88 |
| COc1ccc(CCNC(=O)c2ccc(N(C)S(=O)(=O)c3ccc(C)cc3)cc2)cc1OC | 10.3 |
| CCn1c(NC(=O)Nc2cccc(C)c2C)cc2sccc21 | 15.9 |
| CSc1nsc(SCC(=O)Nc2nc3ccccc3s2)n1 | 5.45 |
| CCN(CC(=O)Nc1ccc(C(C)=O)cc1)CC(=O)Nc1cccc(OC)c1 | -7.67 |
| CC(=O)Nc1ccc(S(=O)(=O)NCC2CCC(C(=O)N3CCCCCC3)CC2)cc1 (stereo not shown) | 10.1 |
| COc1ccc(-c2nnc(NC(=O)c3ccc([N+](=O)[O-])o3)o2)c(OC)c1 | 15.7 |
| CCOC(=O)C1C(=O)NC(C)C1c1ccccc1 (stereo not shown) | 4.56 |
| O=S(=O)(c1ccc(S(=O)(=O)N2CCN3CCCC3C2)cc1)N1CCCC1 (stereo not shown) | 10.5 |
| CCCOc1cc(C)nc(-c2ccccc2O)n1 | 16 |
| Cc1cccc(C(=O)NC(=S)Nc2ccc(S(=O)(=O)N(C)c3ccccc3)cc2)c1 | 7.62 |
| CCC(C)[C@H](NC(=O)N1CC(=O)Nc2ccccc21)C(=O)NC(C)CCc1ccccc1 (stereo partly shown) | 6.37 |
| COCCCNc1nc2c(c(=O)[nH]c(=O)n2C)n1CCCc1ccccc1 | 15.3 |
| COc1ccc(Nc2nnc(SCc3cn4c(C)cccc4n3)s2)cc1 | 6.12 |
